Measured values taken from the supplement of paper PMC11417369.
This is one part of the list.

System: PfSIP2 AP2 domain 1 (GST-tagged)
Test: gcPBM binding intensity (ln(normalized median fluorescence intensity)); higher = stronger DNA binding
In short: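 GST-tagged P. falciparum DNA-binding domains, expressed in E. coli (about 25 μg on average), were applied for 1 h to an Agilent 4 × 180k array of primer-extended double-stranded 36-bp intergenic genomic probes plus negative controls. The binding buffer was 1× PBS with 1% milk, 0.2 mg/ml BSA, 0.5% salmon testes DNA and 0.03% Triton X-100. Bound protein was detected with Alexa488 anti-GST antibody and scanned at 488 nm. Binding intensity is the highest Masliner-normalised natural-log median intensity across replicate spots of either probe orientation.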

Sequence	gcPBM binding intensity (ln)
ATCTATATTCATAATACACACATTCTGTAGCATTAT [CACACA_site7058]	7.03
TGATTAATTTTTAAATGTACTTAAAAATATACTTAT [XGTACX_site2872]	7.09
TATATCATATAAAACCGTACATACATACTTAATTGT [XGTACX_site6822]	7.06
AAAAATAAATAAATATGTACATATATACATATATAT [XGTACX_site5892]	7.16
AAAAAAAAATTAAAATGTACACATAAAAAAAAAAAA [XGTACX_site794]	6.91
TTTTATATGTTATATACACACATATAAATAAATATA [CACACA_site7418]	6.92
TCCTTATTTCATATTTTTAAATAATACAAAAAAAAA [CACACA_negctrl_site773]	7.14
ATATATATTTATAATCGTACGTACCTAACAATACAA [XGTACX_site4510]	7.33
AAATAAAAAAAAGCCTGTACATGTTCATAAATTTTT [XGTACX_site7925]	6.81
GAATATTAAATATTATCACACACATAATTATTTCCA [CACACA_site8730]	7.03
TTCTATTTATATGTGGGTACTAATTTTTTTTCTTTT [XGTACX_site7104]	6.99
CTTAAATTAATTTGGGTGCATATATTTGTACACATT [GTGCAC_site9948]	10.9
TTAATTTTTTTTTAAACACACATTTTTTTATTTAAG [CACACA_site2738]	6.73
TGAATAAAATATTATACACACATATGTATATAACAT [CACACA_site974]	6.85
TATTAATTTTTTTTTTTTTTTTTTTTTTTTTTTTTT [CACACA_negctrl_site1329]	8.76
GTTATAAATAATAAATAAATAATCAAATGAAGAATG [CACACA_negctrl_site653]	7.17
AGGAGGATAGTTCACAGTACCCAGGAAATCTGCGGA [XGTACX_site4928]	6.61
TATGCAATAAAATATACACACAATATACTTATATAT [CACACA_site7691]	6.99
ATAAATATACCAATCGGTACACATTTATACAAACAA [XGTACX_site7484]	6.98
AATAAATACACATACACACACGACGCTAGTATATGT [CACACA_site6627]	6.83
AGAATAAATATGTGGTGTTATAGTATTAATGTTAAT [TGCATGCA_negctrl_site62]	7
GCTATAAATATAATCACACATAAATATATAATATAT [CACACA_site5144]	7.13

Sequence	gcPBM binding intensity (ln)
AGAAAAAAATAATCATCACACACGGAGAATGTCCAA [CACACA_site2314]	6.59
GAAAATAACTAAAATTGTACAAAGAAACATATATTT [XGTACX_site6484]	6.83
TATATATATCTGTATACACACATACAAATATGTAAA [CACACA_site5950]	7.16
GATATTCATTATATATGTACATATATGTAATATATA [XGTACX_site2210]	7.05
TATTAAAGCACCCATGCACACACACTAAGGAAAAGA [CACACA_site7961]	9.28
ATATATTTTTTTTTTTCACACATTAGGATTCATATA [CACACA_site5758]	7.12
TAATAATATATAAAAAGTACATAACAAGATATGAAA [XGTACX_site4921]	7.19
ATCATATGTATGGTGGTGCATTATGCATGAATTTTA [GTGCAC_site9798]	10.2
TATATAAACCCACCTACACACACAACGTAAATGCAT [CACACA_site8702]	7.1
ATTATTATATTCAAATGTACTTAATAAACATTTTAA [XGTACX_site3023]	6.99
TTTATCTAAATATGTGTGCACTCGTTAATTTTTTTT	10.5
TGTTGATTTATCCTGTGTACGGATATATATCTTTCA [XGTACX_site7826]	6.88
TAAAGAATATTATAAACACACACTTTATAAAGAATT [CACACA_site114]	6.67
GTAATTATACATATTACACACTCTCTTGATCTTTTT [CACACA_site7756]	6.88
TATATAAAGAAACACACACACACCTTATAATTATTA [CACACA_site4062]	7.27
AAAAAAAAAACACGCGCACACACACCCACCCACCCA [CACACA_site8689]	7.81
ACTAATAAAGGTGTAATACACACTATAAAAAGGAAT [CACACA_site1124]	7.09
TTTTTTCTTTATTATGGTACGTATAAAAAAATTATA [XGTACX_site3433]	7.18
GAGAGGTATCAAAAATGTACACATATATATATGTAT [XGTACX_site5611]	7.04
ATATATAATATATATTGTACAGGTATGTCTATAAAT [XGTACX_site2243]	7.14
TATAAAATTTTTAAAAGTACATATTTTACATAATAC [XGTACX_site2193]	7.07
ATTATTCCATATTATTGTACTTTAATTTTTTAAACC [XGTACX_site2960]	7.15
